# Measured values from the supplement of paper PMC12632987.
# Whole data set: some 1,800 sequences, median “median log2 fold change of GCK-ALFA target abundance (FLAG IP / Myc IP barcode read proportion)” near 0.14, cut for the lowest 2% near -0.84. The list shows a part of the results.
# B1: traf2_out_18_54_1951 (protein)
# chain: AELEALKAEAREVIDAWTAAVTALVADDPALQAAVAAMRAEVLAALDTEGIWAAVTTFRRGSAALVAAIADPAVADAVGDLAADARNRLAKLAIRAEEAE
# B2: traf2_out_6_156_2382 (protein)
# chain: DIEKILEEAKKKIEELIKKLSKAPESKKIRYINEIAGTVYRALQKLRDLGASLEELKEFTEEIKKFVEEQLEKYGLDESTKNLILSSINAVGEVALREAA
# B3: traf2_out_15_48_1341 (protein)
# chain: SVEELRAVASEIADEIDAAKDAVAAELEALRPSAAPEQRAPLAEAIDAARHGRGQNTVLALLDRLEPLLAPEQAARVAALRDRLRAVVRAASARMAEVLK
# B4: traf2_out_18_167_1889 (protein)
# chain: EEEIRKKIEEYTDKLVELSEIRRALLLILEKLKKDREEALKLIEEALKKFPNSEVIKEVYEASKTLSDEELAKLLEEKAEELQKEANEAYKKREEALKEL
# B5: traf2_out_15_48_1364 (protein)
# chain: DPEKLREVYREVADRQIAKADEVAARLEELLPKASPEVKPLIEALIEAARRGAGLSDIAARLKEIAEKADPELKKKLLELREEVERVRREASRRISEVEK
# B6: traf2_out_5_192_2335 (protein)
# chain: SMEEEEELEEFLEEARKRLTEGVEKLAEESDKISEEELTIRLQHLVLTELNRAKTLEEKEAVVELAEEILSSEPKISPETVEGVVNTARQVIAAEAAVDA
# B7: traf2_out_1_158_904 (protein)
# chain: STDVSTLHAVATSTLDVYAENAKERGLEKAAALFEQLKADVEKLYEENKDASLEEFAAKVLALLDEYAKKSESLPPEERELVDIAIRQIRSGVLQVVKLA
# B8: traf2_out_8_144_2539 (protein)
# chain: MMTKREIANRLANILVELDELIEEADPETKEVLIKARRHVGQALNLVVFGGPKEEILKEIEEAIKYLKEAIKLVADNPELKERVEKALEELKKIKKEIKK
# B9: traf2_out_11_169_882 (protein)
# chain: EEKEKNRKFNDFALELNDKAKKELLAFAEELAKKLGLDVAEVKAIFEANKNSSLSALAAALIEYFRSKGHEDAAAAVLAKYEELQEKINKEGTKKLKELE
# B10: traf2_out_12_50_980 (protein)
# chain: SEEEEEEEENERIRELADEAIARADELVAATGGDPAAAFAALRAEAEADPSQARFLRTVARTLQRLFLSRGADPATVGALASALLDHLDEIIEAAEPPEP
# B11: traf2_out_18_3_1927 (protein)
# chain: SAEELKEVSEKIDEIIDEAREKAREALDRIRARHPEKAAEVDRLEALLDAGAGPFGILEELAELARELGDEELAKELEEFLKEKRKELSELVEEYLKLRK
# B12: traf2_out_20_3_2125 (protein)
# chain: EELEKELEKELERALKLLKEAAKKSDPETAAKLEKLIKRLKASRELSPSDRLVVVSEVRREVRALAEAARAAGKEELAAILEEAAEELNKAAGLLLKIEE
# B13: traf2_out_20_3_2188 (protein)
# chain: SELEKQLQEELDRALKLIDEAAKLADPETAARLEALRDRLIASRTLSYEDRLVTLSEIRRELLRLAEQARAEGKEELAKVLEEAADAINRAMNLVYKIIE
# B14: traf2_out_16_104_1392 (protein)
# chain: EEARRAELERIAARLREIAERAGRIANRLYELYLKASPEEKEKLSDALVEASELRREALLAAQEVEEALRTGGDLAEARRRLEELEERLEEIERRYEELE
# B15: traf2_out_17_162_1553 (protein)
# chain: AELEKEWEELKKELEELRKKLEEFEKKLEELESMSKEELTDLLVEVSEARRRARQLAERLKELKPLIGEEEAGKLREEAEKIAEELQRIANKIYEELLKK
# B16: traf2_out_17_162_1602 (protein)
# chain: SELEKFIERIEERLERLEEEARRLEEKLKRIEELSKEELSDLLVEASEARREARELIEELEKHKEELPEELYKRLLERAEEIAERFQRLANEIYKELEKK
# B17: traf2_out_11_169_881 (protein)
# chain: EEKEKNRKFNDFALELNDKAKEELLKFSLELAKELGLDVEEVKKIYEENKNKSLSYLASKLIEYFKSKGHEEAAKKVLEKYEKLQDEINKEGTKKLKELE
# B18: traf2_out_15_17_1310 (protein)
# chain: SAEAALNEALRKATNEVLDEAEKLLEELVAEARKEAEKDGTLEELNKLIEESKDYSVISQIQILAQWAKEKGFTELAKRLEEAAEEMRKRFSDAAKAVEA
# B19: traf2_out_16_171_1437 (protein)
# chain: AQAEREAALKAEIDAWAAELKARADTAVEVAPLISKETGLTKEQIAAGFRSTMTDRIAAARDYFTAKAKDLSEEVKKYIDERLADVRAHLDAAVAAILAQ
# B20: traf2_out_16_104_1406 (protein)
# chain: AAATQAAFDAIIAELNKIAEELGKIANKIYKKMETASPELKEKLTDALVDASELRRQALEAAVAAAQARATGGDLAAAQATLAELKKKAEEVKKKAEELF
# B21: traf2_out_13_95_1075 (protein)
# chain: SKEANEKIKEIADEMLEKSKEILKELAEKVKDDPEMKAKVEEALYLAETQGINAAIHLLKELAKENEKYKELLEKTIEELEKIKREAGREVAKILKEEEE
# B22: traf2_out_11_155_678 (protein)
# chain: ERRRELNNELVDEVTAIADEAEAELRAIAAEAAAAHPEAAAAIAAVLAASRPFSHRSLGGRLAALFRELGLEDEAARVEALLERAQKRANEIVKRIEAEL
# B23: traf2_out_17_162_1640 (protein)
# chain: SPVEEFKERVEKELKELEKRVEELEEKSKKIDEYSKEELSDLIVEASEVKRRARELKQEVLAAKDLIPEEERARILKRLEEIIERAQRIAQKFYDKYLSL
# B24: traf2_out_16_104_1395 (protein)
# chain: SSEKEAEFKKIAEELLEIAERAGRIANRAYKLYEKADPERKTELSDLMVEASELRREALLAAQEVKEWLETGGDLEEAKAKLEELKKRLKEIEERLKELE
# B25: traf2_out_6_156_2417 (protein)
# chain: MVEEIFKEALKKIKEEIKKLSEASEEKKIKYISRIAGTAYRALQQLRDAGASLEEIKEFAERLLEEIEKEAKKAGLDEKTRNLLLSSLQAVFDVAIAEAE
# B26: traf2_out_14_17_1297 (protein)
# chain: SIIEKLKEILEKAKELAKKLPELKLELTQLARKAESALVLAEMYEEDPSYKPELLQALKNLIKLTKEVAEKVKPISEEAVKKLEEIAKTAEEILKEVEKE
# B27: traf2_out_14_149_1254 (protein)
# chain: SATEEKKKALEEARKLMEEIIKILEKALKAGSTDVDKEKIRKLLEEAREILKKQGFVLGHLLAMEEMLETTKEWTLEDIKAFLELAKRAAESLKVLAEML
# B28: traf2_out_20_3_2155 (protein)
# chain: SELEEEAEKAREEAIKLLEEAAKLADPETAKRLEELRERVERSRELSPEDRLVELSEVRREVLELAEEAAAAGDEELAAVLEEAAEALNRAMNLVYQIIL
# B29: traf2_out_20_38_2049 (protein)
# chain: SALEEDAARLEELAPKFFEATDEVDERLEKLKKEGKSVAEAAIEILKEKKKEAKTEEAKKELDEGIKEVEKLKKEGASDEVIRRVTIRAVNTALWIELNA
# Target: T1, TRAF2, Q12933
# T1 chain: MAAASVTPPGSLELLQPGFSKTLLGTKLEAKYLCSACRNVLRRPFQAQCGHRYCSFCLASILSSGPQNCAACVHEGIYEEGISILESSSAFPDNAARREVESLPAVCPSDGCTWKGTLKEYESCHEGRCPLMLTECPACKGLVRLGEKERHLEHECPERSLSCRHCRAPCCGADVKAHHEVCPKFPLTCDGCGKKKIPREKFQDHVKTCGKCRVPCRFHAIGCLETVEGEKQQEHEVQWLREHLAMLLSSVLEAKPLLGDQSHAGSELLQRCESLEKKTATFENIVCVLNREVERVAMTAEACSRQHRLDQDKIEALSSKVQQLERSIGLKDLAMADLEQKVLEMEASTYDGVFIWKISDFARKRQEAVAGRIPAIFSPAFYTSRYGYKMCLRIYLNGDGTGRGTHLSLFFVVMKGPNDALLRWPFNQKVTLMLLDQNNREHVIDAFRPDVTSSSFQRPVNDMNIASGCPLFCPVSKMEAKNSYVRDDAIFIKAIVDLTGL
# Assay: median log2 fold change of GCK-ALFA target abundance (FLAG IP / Myc IP barcode read proportion) (log2 ratio); each designed protein is fused to an ALFA-tag nanobody in HEK293 cells to bring the named protein to FLAG-tagged glucokinase (GCK); Myc marks an untargeted standard; higher = target protein stabilised (more abundant)
# Conditions: target protein: 3xFLAG-MCP-GCK-ALFA reporter; HEK293 landing pad (RPLP)
# In short: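 HEK293 landing-pad cells received a recombined binder library fused to the ALFA nanobody and were induced with 2 μg mL^−1 doxycycline, then transfected with a plasmid encoding a FLAG-tagged target and a Myc-tagged standard. Lysates were collected after 48 h for anti-FLAG and anti-Myc immunoprecipitation, and the circular RNA barcodes were reverse transcribed, amplified and sequenced. Target abundance for each binder is the median log2 ratio of FLAG to Myc barcode read proportions. Barcodes had to reach a proportion of at least 10^−7 in both replicates, each binder needed at least 3 barcodes per replicate, a pseudocount of 10^−6 was applied, and the two replicates were pooled.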
row,Binder,median log2 fold change
1,B1,0.229
2,B2,0.0808
3,B3,0.194
4,B4,0.301
5,B5,0.354
6,B6,0.359
7,B7,0.194
8,B8,0.00428
9,B9,0.444
10,B10,0.282
11,B11,-0.0729
12,B12,0.112
13,B13,-0.157
14,B14,0.229
15,B15,0.225
16,B16,0.6
17,B17,0.301
18,B18,0.168
19,B19,-0.0368
20,B20,0.196
21,B21,0.162
22,B22,0.0174
23,B23,0.0147
24,B24,0.47
25,B25,0.0576
26,B26,0.298
27,B27,0.199
28,B28,0.22
29,B29,0.106
